Publication PMC4336329 (PLoS ONE, 2015)
Among all 310,000 compounds or so, about 14,000 (4.5%) showed an effect of 50% or more. The effect is printed as a negative number. The list shows a part of the results.

What follows are compounds tested against human ether-à-go-go-related gene (hERG) potassium channel (human, UniProt Q12809) (assay: primary screen, population patch clamp on CHO cells stably expressing hERG).
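Also: peak tail current of the secondary pulse compared with the same well before compound.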

Chain of human ether-à-go-go-related gene (hERG) potassium channel (Q12809 whole entry, looked up): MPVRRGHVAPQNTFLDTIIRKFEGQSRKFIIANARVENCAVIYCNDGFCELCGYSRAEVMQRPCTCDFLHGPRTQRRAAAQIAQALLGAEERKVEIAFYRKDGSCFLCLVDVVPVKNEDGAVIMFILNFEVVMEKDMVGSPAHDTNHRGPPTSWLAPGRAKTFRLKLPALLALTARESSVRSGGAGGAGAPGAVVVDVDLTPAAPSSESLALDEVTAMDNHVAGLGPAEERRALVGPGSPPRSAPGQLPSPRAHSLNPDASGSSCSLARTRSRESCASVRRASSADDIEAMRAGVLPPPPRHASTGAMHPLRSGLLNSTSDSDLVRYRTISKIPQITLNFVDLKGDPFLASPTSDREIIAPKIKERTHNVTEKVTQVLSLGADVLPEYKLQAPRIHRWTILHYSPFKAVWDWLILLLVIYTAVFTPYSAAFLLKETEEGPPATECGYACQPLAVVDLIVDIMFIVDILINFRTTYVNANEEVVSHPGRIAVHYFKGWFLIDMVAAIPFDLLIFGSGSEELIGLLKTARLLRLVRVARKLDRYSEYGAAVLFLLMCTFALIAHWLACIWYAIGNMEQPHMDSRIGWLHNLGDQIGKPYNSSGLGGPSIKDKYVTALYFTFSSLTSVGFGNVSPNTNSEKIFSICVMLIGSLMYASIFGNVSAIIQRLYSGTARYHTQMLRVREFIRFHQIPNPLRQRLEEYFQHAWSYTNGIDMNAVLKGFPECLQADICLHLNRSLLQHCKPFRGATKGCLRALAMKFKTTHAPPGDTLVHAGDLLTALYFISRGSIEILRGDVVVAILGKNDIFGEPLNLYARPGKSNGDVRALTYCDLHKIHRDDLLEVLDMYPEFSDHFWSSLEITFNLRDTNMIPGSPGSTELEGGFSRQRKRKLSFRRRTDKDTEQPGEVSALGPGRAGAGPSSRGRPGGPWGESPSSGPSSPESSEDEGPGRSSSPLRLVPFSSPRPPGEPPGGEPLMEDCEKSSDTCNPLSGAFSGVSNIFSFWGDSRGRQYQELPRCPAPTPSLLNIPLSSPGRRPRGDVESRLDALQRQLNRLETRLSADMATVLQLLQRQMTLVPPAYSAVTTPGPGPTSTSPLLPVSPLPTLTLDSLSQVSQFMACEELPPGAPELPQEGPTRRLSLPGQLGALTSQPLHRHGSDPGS

Row | Compound | hERG current change (%, negative = inhibition) at 10uM
1 | O=[N+]([O-])c1ccc(NCCCNS(=O)(=O)c2ccccc2)cc1 | -64.7%
2 | COc1ccc(C2CC(c3ccc(F)cc3)=NN2c2ccccc2)cc1OC (stereo not drawn) | 1.29%
3 | CC1CCCCN1CCNC(=O)c1cc2c(=O)n(C)c3ccccc3c2n1C (stereo not drawn) | -2.27%
4 | CCCN(C(=O)CSCc1ccc(Cl)cc1)c1c(N)n(Cc2ccccc2)c(=O)[nH]c1=O | 11.4%
5 | O=C(COc1ccc(F)cc1Br)N1CCN(c2ncccn2)CC1 | -20.8%
6 | O=C(NCCOc1cccc2cccnc12)c1cccs1 | -12.8%
7 | CCOc1cc(/C=N/NC(=O)CN(CCc2ccccc2)S(=O)(=O)c2ccc(NC(C)=O)cc2)ccc1O | 2.38%
8 | CSc1nc(-c2ccccc2)nn1C(=O)c1ccc(C)cc1 | 3.97%
9 | COc1ccc(-c2cc(C(=O)N/N=C(\C)c3cccnc3)c3cc(C)ccc3n2)cc1OC | 19.9%
10 | CCN(Cc1ccc(NC(C)=O)cc1)CC1CCCN(CCc2cccc(OC)c2)C1 (stereo not drawn) | -30.3%
11 | Cc1nnc(CN(C)Cc2cn[nH]c2-c2ccc(-c3ccccc3)cc2)o1 | -15.1%
12 | CC1=C(C(=O)N2CCCCC2)C(c2cccs2)C2=C(CCCC2=O)N1 (stereo not drawn) | 18.5%
13 | COc1cccc(C(=O)C2CCCN(C(=O)CCC3=NNC(=O)CC3)C2)c1 (stereo not drawn) | -15.2%
14 | C=CCSC1=N/C(=C\c2ccc(C(=O)O)cc2)C(=O)S1 | 14.9%
15 | O=S(=O)(c1cnc[nH]1)N1CCc2ccccc21 | 16.5%
16 | CCOC(=O)c1c(NC(=O)COC(=O)/C=C/c2ccco2)sc2c1CC(C)(C)NC2(C)C | -34.4%
17 | CCN1C[C@]2(COC(=O)c3ccccc3N)CC[C@H](OC)C34[C@@H]5C[C@H]6[C@H](OC)[C@@H]5[C@](O)(C[C@@H]6OC)[C@@](O)([C@H]13)[C@@H](OC)[C@@H]42 | 10.3%
18 | COc1ccc(NC(=O)CN(Cc2ccccc2)S(C)(=O)=O)cc1 | -1.09%
19 | CCCN1C(=O)/C(=C/c2ccc(C)o2)NC1=S | 9.75%
20 | CC(OC(=O)c1cc(S(=O)(=O)N2CCOCC2)ccc1F)C(=O)NC1CCCC1 (stereo not drawn) | -0.142%
21 | Cc1ccc(NC(=O)Nc2cccn(Cc3c(F)cccc3Cl)c2=O)cc1 | 20.1%

Row | Compound | hERG current change (%, negative = inhibition) at 10uM
22 | Cc1ccccc1NC(=S)N1CCN(c2ccccc2Cl)CC1 | 8.88%
23 | COc1ccc(CC(=O)N/N=C/c2ccc(C)s2)cc1 | 11%
24 | O=C(NCc1ccccc1CN1CCCC1)c1ccc(OCc2cscn2)cc1 | -30%
25 | CC(=O)N1CCN(c2ncnc3ccccc23)CC1 | 5.33%
26 | C=CCOc1c(Br)cc(/C=C2/NC(=S)N(C(C)=O)C2=O)cc1OC | 16.5%
27 | Cn1c(O)c(N=NC(=O)CNC(=O)c2cccnc2)c2ccccc21 | 15.1%
28 | Cc1cc(OCC(=O)N2CCC(C(=O)O)(c3ccccc3)CC2)c2c(C)cc(=O)oc2c1 | 11.6%
29 | O=C(N/N=C/c1ccc(OC(=O)c2ccc(Br)cc2)cc1)c1ccncc1 | -4.01%
30 | Cc1c(C(c2ccccc2Cl)c2c(O)c3ccccc3oc2=O)c(=O)n(-c2ccccc2)n1C (stereo not drawn) | 17.9%
31 | O=c1cc(CN2CCN(Cc3ccccc3)CC2)c2cc3c(cc2o1)CCC3 | -51%
32 | CN(Cc1ccco1)C(=O)c1c[nH]c2ccc(S(=O)(=O)Nc3ccc4c(c3)OCCO4)cc2c1=O | -21.4%
33 | O=S(=O)(Cc1ncc(C(F)(F)F)cc1Cl)c1ccccc1 | 9.45%
34 | Nn1c(SCc2ccccc2)nnc1-c1ccco1 | 15.7%
35 | COc1ccc(C(=O)[C@@H]2CC[C@](C)(C(=O)O)C2(C)C)cc1 | 10.1%
36 | Cc1cc(C)c(C2C(C#N)=C(N)Oc3n[nH]c(C)c32)cc1CN1CCOCC1 (stereo not drawn) | -17.6%
37 | COc1ccc(S(=O)(=O)N2CCC(NC(=O)N3CCOCC3)CC2)cc1 | 0.446%
38 | Cn1c(Cc2ccccc2)nnc1SCc1ccc(C(=O)O)cc1 | 1.12%
39 | O=C1CCCC2=C1C(c1ccncc1)c1c(nc(SCc3ccccc3)[nH]c1=O)N2 (stereo not drawn) | 17.7%
40 | CN(Cc1ccccc1)C(=O)CN1C(=O)c2ccccc2C1=O | 3.63%
41 | CC(=O)N(C(C)=O)N1C(=O)/C(=C/c2ccc(Cl)cc2)SC1=S | -2.01%
42 | COc1ccc2[nH]c3c(N4CCN(Cc5ccc6c(c5)OCO6)CC4)ncnc3c2c1 | -18.8%
